# Results reported in PubChem BioAssay AID488969 (Vanderbilt High Throughput Screening Facility, 2010).
# The full ranking holds about 110,000 compounds; the median of “z-score” is about -0.1, and the highest 2% start at about 2. This is one part of the list. Active and inactive are the calls of the source.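 How the source made its calls: active means z-score in the third read window above 3 or below -3; inactive means the rest.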
# Molecular target: Metabotropic glutamate receptor 8 (Rattus norvegicus) (UniProt P70579)
# Chain of UniProt P70579 (P70579 whole entry, looked up): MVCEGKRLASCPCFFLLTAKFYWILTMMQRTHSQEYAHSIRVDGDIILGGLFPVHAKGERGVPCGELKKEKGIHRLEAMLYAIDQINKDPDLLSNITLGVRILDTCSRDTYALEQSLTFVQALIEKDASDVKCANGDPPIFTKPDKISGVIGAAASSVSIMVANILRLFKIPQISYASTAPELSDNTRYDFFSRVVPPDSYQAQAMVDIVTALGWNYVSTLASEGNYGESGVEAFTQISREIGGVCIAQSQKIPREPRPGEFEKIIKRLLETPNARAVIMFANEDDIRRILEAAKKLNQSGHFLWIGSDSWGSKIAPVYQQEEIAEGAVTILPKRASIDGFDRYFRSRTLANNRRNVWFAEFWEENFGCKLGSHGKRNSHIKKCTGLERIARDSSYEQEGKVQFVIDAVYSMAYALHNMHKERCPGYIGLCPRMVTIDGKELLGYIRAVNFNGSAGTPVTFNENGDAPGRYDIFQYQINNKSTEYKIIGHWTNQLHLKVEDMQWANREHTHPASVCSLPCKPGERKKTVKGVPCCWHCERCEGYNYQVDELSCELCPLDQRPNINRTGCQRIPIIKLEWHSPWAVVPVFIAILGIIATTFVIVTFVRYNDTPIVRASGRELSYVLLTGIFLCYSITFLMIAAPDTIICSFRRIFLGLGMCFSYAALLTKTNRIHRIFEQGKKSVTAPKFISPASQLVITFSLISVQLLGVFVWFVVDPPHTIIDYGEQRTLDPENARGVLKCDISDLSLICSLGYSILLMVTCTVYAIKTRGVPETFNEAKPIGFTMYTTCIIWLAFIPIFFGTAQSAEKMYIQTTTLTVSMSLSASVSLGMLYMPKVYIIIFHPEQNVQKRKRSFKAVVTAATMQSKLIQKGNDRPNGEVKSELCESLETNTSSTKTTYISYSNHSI
# Assay: rat mGluR8 modulators via GIRK flux, primary screen, cell-based, thallium flux, HTS (AID 488969)
# Details: HEK293 rat mGluR8, GIRK (G protein-gated inwardly rectifying potassium channel) thallium flux, FluoZin2; at 10 µM; stronger effect = higher value; submaximal glutamate (EC20) added with thallium
row,Compound,z-score
1,CCCCOc1ccc(-c2cn3ccccc3n2)cc1[N+](=O)[O-],-0.66
2,CC1CCc2c(sc(Nc3nc4c(F)cccc4s3)c2C(N)=O)C1 (configuration not stated),1.42
3,CCn1c(N2CCN(C(=S)NCC(C)C)CC2)nc2ccccc21,-0.148
4,Cc1ccc(-c2nnc(SCC(=O)OC(C)C)n2N)cc1,-0.186
5,CCn1ncc(C2=NOC(C(=O)Nc3c(C)n(C)n(-c4ccccc4)c3=O)C2)c1C (configuration not stated),-0.0873
6,O=C(CN1CCC(NC(=O)c2ccccc2F)CC1)NCc1ccc(F)cc1,0.34
7,O=C1CCCC2(O)C1C(c1cccc(Br)c1)NC(=O)N2Cc1ccccc1 (configuration not stated),-0.114
8,CN(CC(=O)NCc1cccs1)S(=O)(=O)c1cccc2cccnc12,-0.186
9,CCOC(=O)c1sc(NC(=S)NC(=O)C2CCCC2)cc1C,-0.307
10,Clc1ccc(OCc2nc(-c3ccccn3)no2)c(Br)c1,0.419
11,COC(=O)c1ccc(N=NNc2ccccc2)cc1,-0.163
12,Nc1c(C(=O)NCc2ccco2)sc2nc3c(cc12)C(=O)CCC3,-0.541
13,CC(C)NC(=O)c1ccccc1NC(=O)Cc1ccc(Cl)cc1,0.535
14,C=CCn1c(SCc2ccc(Cl)c(Cl)c2)nnc1C(CO)NC(=O)c1ccc(OC)cc1 (configuration not stated),0.0847
15,COc1ccc(S(=O)(=O)N2CCN(c3cccc(C)c3C)CC2)cc1,-0.658
16,Cc1onc(-c2ccccc2)c1C(=O)Nc1nnc(-c2ccncc2)s1,-0.00751
17,Cc1cc(C(C)(C)C)cc(C)c1N,-0.199
18,Cc1cc(C)c(S(=O)(=O)N2CCN=C2c2ccccc2)c(C)c1,-0.118
19,Cn1cc(C(=O)c2ccc(Cl)cc2Cl)cc1C(=O)N/N=C(\N)COc1cccc(C(F)(F)F)c1,-0.423

row,Compound,z-score
1,NC(=O)c1ccccc1N/C=C/C(=O)c1ccco1,-0.526
2,COC(=O)c1cccc(CSc2nc3ccccc3[nH]2)c1,0.475
3,CCn1c(=N)c(C(N)=O)cc2c(=O)n3cccc(C)c3nc21,-1.13
4,CC(C)NC(=O)C1(c2ccccc2)CCOCC1,-0.0416
5,Cc1ccc(-c2ccc(/C=N\NC(=O)C3C(=O)NCC3c3ccccc3)o2)cc1Cl (configuration not stated),-0.12
6,c1ccc(COc2ccc(OCCCn3cncn3)cc2)cc1,-0.0312
7,CCOC(=O)C1(C)NC(c2ccco2)C2C(=O)N(c3ccc(C)cc3)C(=O)C21 (configuration not stated),0.153
8,CCCN=C(N)/C(C(=O)OCC)=C(\O)c1ccc(OC)cc1,-0.155
9,COc1ccc(-c2noc(-c3ccc(Br)o3)n2)cc1OC,0.677
10,COc1cc(/C=C(/C#N)C(=O)NCCc2c[nH]c3ccccc23)ccc1OCc1ccccc1F,-0.542
11,O=C(NN=C1c2ccccc2-c2ccccc21)c1ccccc1Br,active: 5.82
12,Cc1nn(-c2c(Cl)cc(Cl)cc2Cl)c(=O)c2ccccc12,0.0211
13,CCOC(=O)/C(=N/Nc1ccccc1)N1CCCc2ccccc21,-0.0248
14,CCCNC(=O)c1cc2c(C(F)(F)F)nn(C)c2s1,-0.0653
15,Cc1cc(C)n(-c2nc(Nc3ccccc3C(F)(F)F)nc(-n3nc(C)cc3C)n2)n1,0.767
16,CCOC(=O)N1CCC(NC(=O)c2cc3c(C)nc4ccccc4c3o2)CC1,-0.445
17,CN1CCN(C(=O)c2cc3nc(-c4ccc(Cl)cc4)cc(C(F)(F)F)n3n2)CC1,-0.381
18,CN(C)S(=O)(=O)c1cccc(NC(=O)CN2C(=O)C3C4C=CC(C4)C3C2=O)c1 (configuration not stated),0.514
19,Cc1cc(C)cc(N2CCCC2=O)c1,-0.193

row,Compound,z-score
1,COc1ccc(OCc2ccc(C(=O)N3CCOCC3)cc2)cc1,0.414
2,O=C(CSc1nc2c(sc3ccccc32)c(=O)n1Cc1ccccc1)NCC1CCCO1 (configuration not stated),0.199
3,Cc1ccc(Cl)cc1NS(=O)(=O)c1c(C)[nH]c(=O)[nH]c1=O,-1.66
4,CCN(c1ccccc1)S(=O)(=O)c1ccc(Cl)c(NC(=O)COC(=O)c2cccc(OC)c2O)c1,-0.188
5,CN(C)S(=O)(=O)c1ccc(C(=O)OCC(=O)c2ccc(OC(F)F)cc2OC(F)F)cc1,0.933
6,COc1ccc(-c2nc3n(c(=O)c2C#N)CCCS3)cc1,-0.372
7,COc1cccc(-c2csc(NC(=O)Oc3ccccc3)n2)c1,-0.144
8,Cc1ccc(C)c(NC(=O)Cn2nc(-c3ccccc3)nc2-c2ccccc2)c1,-0.13
9,CCOc1cc(S(=O)(=O)NCc2ccccn2)ccc1Cl,0.361
10,O=C(CN1C(=O)CCC1=O)Nc1nc(-c2ccc(Oc3ccccc3)cc2)cs1,-0.229
11,CCCn1nnc2ccccc2c1=O,0.262
12,CCCc1cc(=O)[nH]c(SCC(=O)N2CCN(c3ccccc3)CC2)n1,-0.562
13,CC(C)NC(=O)c1ccc(-c2ccccc2C(F)(F)F)o1,-0.199
14,C[N+]1(C2CCC3CCCC2C3O)CCCC1 (configuration not stated),-0.0417
15,O=C1c2ccccc2-c2c1nc1c([n+]2[O-])CCCC1,-0.0761
16,O=[N+]([O-])c1ccccc1CNC(Cc1ccccc1)c1ccccc1 (configuration not stated),-0.302
17,CN=Cc1sc2ccccc2c1O,0.0625
18,CN(CCC#N)C(=O)CSc1ncnc2sc(-c3ccccc3)cc12,active: 8.2
19,COc1ccc(-c2ccc3c(N)c(C(=O)c4ccc(OC)c(OC)c4)sc3n2)cc1,-0.324
